Test results reported in PubChem BioAssay (Tox21).
Inconclusive results, whose numbers are uncertain, are shown with a selection of clear calls. A potency beside an inconclusive call is a rough fit, not a confirmed value. The source made the active and inactive calls. Unless noted, the call rests on the fitted dose curve.

Target: Progesterone receptor (Homo sapiens) (UniProt P06401)
Test: qHTS assay to identify small molecule antagonists of the progesterone receptor (PR) signaling pathway (AID 1346795; active means well fitted inhibition curve with a large enough effect in the signal ratio in the repeat runs, not every such curve was filed as active; inconclusive means weak or mixed curves; the % refers to the signal ratio)
Conditions: PR-UAS-bla HEK293T, beta-lactamase FRET ratio, 16 h; activity change, negative = inhibition: at 92.4 µM (top of the series) unless noted
Method in brief: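 Antagonist mode: compounds tested against 1 nM (final) promegestone stimulation in HEK293T cells expressing PR-UAS-bla reporter, 16 hr at 37C, 5% CO2; beta-lactamase activity detected via B/G FRET substrate after 2 hr at room temperature.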
On the % scale 0 is the no-effect control and ±100 the full control effect; potency means the concentration at half of the fitted maximal effect; tags describe the fitted curve by direction and shape.

UniProt P06401, sequence (P06401 whole entry, looked up): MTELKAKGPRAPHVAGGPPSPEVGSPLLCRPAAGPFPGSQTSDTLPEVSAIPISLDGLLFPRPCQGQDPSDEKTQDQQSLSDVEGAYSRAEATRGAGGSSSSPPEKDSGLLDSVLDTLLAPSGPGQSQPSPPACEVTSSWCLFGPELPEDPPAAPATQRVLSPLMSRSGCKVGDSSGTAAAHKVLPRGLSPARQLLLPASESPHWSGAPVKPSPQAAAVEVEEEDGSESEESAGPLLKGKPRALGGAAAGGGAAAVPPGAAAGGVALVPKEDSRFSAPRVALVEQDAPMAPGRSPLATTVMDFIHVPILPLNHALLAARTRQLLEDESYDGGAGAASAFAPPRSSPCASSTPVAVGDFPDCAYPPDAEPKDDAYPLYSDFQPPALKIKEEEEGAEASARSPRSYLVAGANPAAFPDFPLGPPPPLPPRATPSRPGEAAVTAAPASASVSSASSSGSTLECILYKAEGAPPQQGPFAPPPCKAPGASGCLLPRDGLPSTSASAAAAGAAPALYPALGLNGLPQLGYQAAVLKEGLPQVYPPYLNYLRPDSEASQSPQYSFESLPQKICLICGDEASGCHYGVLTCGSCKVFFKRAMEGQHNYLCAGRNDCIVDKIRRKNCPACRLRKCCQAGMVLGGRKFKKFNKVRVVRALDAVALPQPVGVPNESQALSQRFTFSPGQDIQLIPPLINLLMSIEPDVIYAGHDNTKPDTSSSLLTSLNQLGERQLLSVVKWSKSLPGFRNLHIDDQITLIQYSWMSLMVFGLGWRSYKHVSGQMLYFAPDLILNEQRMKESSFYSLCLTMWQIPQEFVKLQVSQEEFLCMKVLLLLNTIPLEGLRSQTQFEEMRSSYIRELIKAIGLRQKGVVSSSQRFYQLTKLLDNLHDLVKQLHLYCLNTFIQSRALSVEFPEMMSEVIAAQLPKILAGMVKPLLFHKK

**Q.** Which Potency does the source give for NC(=O)CCCCC(N)=O here?
**A.** inactive

**Q.** With CS(=O)(=O)c1ccc([C@@H](C[C@H]2CCC(=O)C2)C(=O)Nc2cnccn2)cc1Cl as the compound, how does the Potency read?
**A.** inactive

**Q.** With O=S(=O)(O)CCS as the compound, how does the Potency read?
**A.** inconclusive: 2.98 µM [falling, single point]

**Q.** Which Potency does the source give for O=[N+]([O-])c1ccc(F)c(Cl)c1 here?
**A.** inactive

**Q.** Which Potency does the source give for CCCC(=O)OCOC(=O)C1=C(C)NC(C)=C(C(=O)OC)C1c1cccc(Cl)c1Cl (centres undefined) here?
**A.** inconclusive: 33.5 µM

**Q.** Which activity change, negative = inhibition does the source give for Nc1c(S(=O)(=O)O)cc(Br)c2c1C(=O)c1ccccc1C2=O here?
**A.** inconclusive: -2.17%

**Q.** With O=C1c2ccccc2C(=O)C1c1nc2ccccc2c(Br)c1O as the compound, how does the Potency read?
**A.** inactive

**Q.** Which activity change, negative = inhibition does the source give for CCCCC/C=C\C/C=C\CCCCCCCC(=O)OC here?
**A.** inconclusive: -23%

**Q.** For CC1=CC(=O)CC(C)(C)C1, which Potency is on record?
**A.** inconclusive: 6.29 µM

**Q.** With Brc1cc(-c2ccc(Br)c(Br)c2Br)cc(Br)c1Br as the compound, how does the Potency read?
**A.** inconclusive: 26.9 µM [rising, partial curve]

**Q.** For Cc1ccc([N+](=O)[O-])cc1N, which activity change, negative = inhibition is on record?
**A.** inconclusive: -13.4%

**Q.** Which Potency does the source give for CC(=O)[C@H]1[C@H](C#N)C[C@H]2[C@@H]3CC=C4C[C@@H](O)CC[C@]4(C)[C@H]3CC[C@@]21C here?
**A.** inconclusive: 11.7 µM [rising, full curve]

**Q.** For Cc1cc(C(=O)O)ccc1[N+](=O)[O-], which activity change, negative = inhibition is on record?
**A.** inconclusive: 5.87%

**Q.** For O=C(/C=C/c1ccc([N+](=O)[O-])cc1)c1ccccc1, which activity change, negative = inhibition is on record?
**A.** inconclusive: -65.9%

**Q.** Which Potency does the source give for O=C(O)c1cc(-c2ccc(F)cc2F)ccc1O here?
**A.** inactive

**Q.** Which Potency does the source give for Cn1sccc1=O here?
**A.** inactive

**Q.** For NS(=O)(=O)c1cc(C2(O)NC(=O)c3ccccc32)ccc1Cl (centres undefined), which activity change, negative = inhibition is on record?
**A.** inconclusive: -4.2% [at 42.5 µM]

**Q.** For C=C(C)C1CC=C(C)C(=O)C1 (centres undefined), which activity change, negative = inhibition is on record?
**A.** inconclusive: 1.99%

**Q.** With NS(=O)(=O)c1cc2c(cc1Cl)NC=NS2(=O)=O as the compound, how does the activity change, negative = inhibition read?
**A.** inconclusive: 6.96% [at 42.5 µM]

**Q.** Which activity change, negative = inhibition does the source give for c1ccc(SSc2ccccc2)cc1 here?
**A.** inconclusive: -25.8%

**Q.** Which activity change, negative = inhibition does the source give for O=C1CCc2ccccc2O1 here?
**A.** inconclusive: -40.7%

**Q.** For Cc1cn([C@H]2C[C@H](N=[N+]=[N-])[C@@H](CO)O2)c(=O)[nH]c1=O, which activity change, negative = inhibition is on record?
**A.** inconclusive: 6.33%

**Q.** For Cc1nc(N)nc(N)c1-c1ccc(Cl)c(Cl)c1, which Potency is on record?
**A.** inconclusive: 1.68 µM [falling, full curve]

**Q.** For NC(=O)c1ccc([N+](=O)[O-])cc1, which activity change, negative = inhibition is on record?
**A.** inconclusive: -8.69%

**Q.** With CC1(C)C(=O)N(Br)C(=O)N1Cl as the compound, how does the Potency read?
**A.** inactive

**Q.** Which Potency does the source give for O=C(/N=N/C(=O)OCc1ccccc1)OCc1ccccc1 here?
**A.** inconclusive: 61.1 µM [falling, partial curve]

**Q.** For O=C(Oc1ccccc1)Oc1ccccc1, which activity change, negative = inhibition is on record?
**A.** inconclusive: -5.57%

**Q.** Which activity change, negative = inhibition does the source give for Clc1nnc(Cl)c2ccccc12 here?
**A.** inconclusive: -16.7%

**Q.** Which Potency does the source give for CCCCN(CCCC)C(C(N)=O)c1ccc(OC)cc1 (centres undefined) here?
**A.** inactive

**Q.** Which Potency does the source give for CC/C=C\CCOC(C)=O here?
**A.** inactive

**Q.** Which Potency does the source give for Nc1ccc(N=Nc2ccc(N)cc2)cc1 here?
**A.** inactive

**Q.** Which Potency does the source give for O=Cc1ccc(C(=O)O)cc1 here?
**A.** inactive

**Q.** Which Potency does the source give for CN(C)[C@@H]1C(=O)C(C(N)=O)=C(O)[C@@]2(O)C(=O)C3=C(O)c4c(O)cccc4C[C@H]3C[C@@H]12 here?
**A.** inconclusive: 26.6 µM [rising, partial curve]

**Q.** For COc1ccc(-n2nc(C(F)F)cc2-c2ccc(S(C)=O)cc2)cc1 (centres undefined), which activity change, negative = inhibition is on record?
**A.** inconclusive: -27.9%

**Q.** With O=C(c1ccc(F)cc1)C1CCN(CCn2c(=O)[nH]c3ccccc3c2=O)CC1 as the compound, how does the activity change, negative = inhibition read?
**A.** inconclusive: -27% [at 42.5 µM]

**Q.** For CC(C)(C)c1ccc(OC2CCCCC2O)cc1 (centres undefined), which Potency is on record?
**A.** inconclusive: 54.5 µM

**Q.** With CC(C)=CCOc1ccc(/C=C/C(=O)c2ccc(OCC=C(C)C)cc2OCC(=O)O)cc1 as the compound, how does the Potency read?
**A.** active: 26.6 µM

**Q.** For CN(C)C(C)(C)CO, which Potency is on record?
**A.** inactive

**Q.** Which Potency does the source give for C=C1c2cccc(O)c2C(O)=C2C(=O)[C@]3(O)C(O)=C(C(N)=O)C(=O)[C@@H](N(C)C)[C@@H]3[C@@H](O)[C@H]12 here?
**A.** inactive

Tested on: not listed separately
Test: qHTS assay to identify small molecule agonists of the progesterone receptor (PR) signaling pathway - cell viability counter screen (AID 1346799); further: nearly all actives have a fitted effect of over 45% in size
Conditions: PR-UAS-bla HEK293T viability, CellTiter-Glo luminescence, 16 h; series mostly up to 92.4 µM
Method in brief: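 Cells (PR-UAS-bla HEK293T) are plated at 3,000/well in 2% charcoal-stripped FBS medium, rested 6 hr, dosed and incubated 16 hr at 37C. CellTiter-Glo is then added and luminescence measured after 30 min at room temperature.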

**Q.** Which Potency does the source give for NC(=O)CCCCC(N)=O here?
**A.** inactive

**Q.** Which Potency does the source give for O=S(=O)(O)CCS here?
**A.** inconclusive: 0.603 µM [cytotoxic, partial curve, poor fit]

**Q.** Which Potency does the source give for O=[N+]([O-])c1ccc(F)c(Cl)c1 here?
**A.** inconclusive: 5.46 µM [rising, full curve, poor fit]

**Q.** For Cc1ccc([N+](=O)[O-])cc1N, which Potency is on record?
**A.** inactive

**Q.** For O=C1CCc2ccccc2O1, which Potency is on record?
**A.** inconclusive: 68.9 µM [cytotoxic, single point] and inactive

**Q.** Which Potency does the source give for NC(=O)c1ccc([N+](=O)[O-])cc1 here?
**A.** inactive

**Q.** For CC1(C)C(=O)N(Br)C(=O)N1Cl, which Potency is on record?
**A.** inactive

**Q.** With CCCCN(CCCC)C(C(N)=O)c1ccc(OC)cc1 (centres undefined) as the compound, how does the Potency read?
**A.** inconclusive: 13.3 µM [cytotoxic, single point]

**Q.** Which Potency does the source give for C=C1c2cccc(O)c2C(O)=C2C(=O)[C@]3(O)C(O)=C(C(N)=O)C(=O)[C@@H](N(C)C)[C@@H]3[C@@H](O)[C@H]12 here?
**A.** inactive

Tested on: not listed separately
Test: qHTS assay to identify small molecule antagonists of the TGF-beta/Smad signaling pathway - cell viability counter screen (AID 1346824; active means well fitted cell-killing curve with a large enough effect in the repeat runs; inconclusive means weak or mixed curves; further: nearly all actives have a fitted effect of over 50% in size)
Conditions: SBE-bla HEK293T viability, CellTiter-Glo luminescence; series mostly up to 76.8 µM
Method in brief: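 SBE-bla HEK 293T cells were plated overnight at 37 C, then given compounds in DMSO plus TGF-beta1 (added as 0.25 ng/mL solution) for 5 hr. After the bla read, CellTiter-Glo was added to the same wells and luminescence read after 30 min at room temperature.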

**Q.** With CS(=O)(=O)c1ccc([C@@H](C[C@H]2CCC(=O)C2)C(=O)Nc2cnccn2)cc1Cl as the compound, how does the Potency read?
**A.** inactive

**Q.** Which Potency does the source give for Nc1c(S(=O)(=O)O)cc(Br)c2c1C(=O)c1ccccc1C2=O here?
**A.** inconclusive: 7.76 µM [cytotoxic, partial curve, poor fit]

**Q.** Which Potency does the source give for Cn1sccc1=O here?
**A.** inconclusive: 61.6 µM [cytotoxic, single point]

**Q.** For Cc1nc(N)nc(N)c1-c1ccc(Cl)c(Cl)c1, which Potency is on record?
**A.** inconclusive: 1.51 µM [cytotoxic, full curve]

**Q.** For O=C(/N=N/C(=O)OCc1ccccc1)OCc1ccccc1, which Potency is on record?
**A.** inconclusive: 0.49 µM [cytotoxic, single point]

**Q.** With CN(C)C(C)(C)CO as the compound, how does the Potency read?
**A.** inconclusive: 54.9 µM [cytotoxic, partial curve, poor fit]
